Data: patent US20190276511A1 (BIONTECH RNA PHARMACEUTICALS, published 2019)
Like-named read-outs stand apart in the source and are kept apart here.

B1: sc4-1BBL-EHD2-scCD40L (ligand)
chain: [not shown - about 200 residues]GGGGSGGGGSGGGGSREGPELSPDDPAGLLDLRQGMFAQLVAQNVLLIDGPLSWYSDPGLAGVSLTGGLSYKEDTKELVVAKAGVYYVFFQLELRRVVAGEGSGSVSLALHLQPLRSAAGAAALALTVDLPPASSEARNSAFGFQGRLLHLSAGQRLGVHLHTEARARHAWQLTQGATVLGLFRVTPEIPAGLPSPRSEGGGGSGGGGSGGGGSREGPELSPDDPAGLLDLRQGMFAQLVAQNVLLIDGPLSWYSDPGLAGVSLTGGLSYKEDTKELVVAKAGVYYVFFQLELRRVVAGEGSGSVSLALHLQPLRSAAGAAALALTVDLPPASSEARNSAFGFQGRLLHLSAGQRLGVHLHTEARARHAWQLTQGATVLGLFRVTPEIPAGLPSPRSEGGSGGDFTPPTVKILQSSCDGGGHFPPTIQLLCLVSGYTPGTINITWLEDGQVMDVDLSTASTTQEGELASTQSELTLSQKHWLSDRTYTCQVTYQGHTFEDSTKKCADSNGGSGGGDQNPQIAAHVISEASSKTTSVLQWAEKGYYTMSNNLVTLENGKQLTVKRQGLYYIYAQVTFCSNREASSQAPFIASLCLKSPGRFERILLRAANTHSSAKPCGQQSIHLGGVFELQPGASVFVNVTDPSQVSHGTGFTSFGLLKLGGGSGGGGDQNPQIAAHVISEASSKTTSVLQWAEKGYYTMSNNLVTLENGKQLTVKRQGLYYIYAQVTFCSNREASSQAPFIASLCLKSPGRFERILLRAANTHSSAKPCGQQSIHLGGVFELQPGASVFVNVTDPSQVSHGTGFTSFGLLKLGGGSGGGGDQNPQIAAHVISEASSKTTSVLQWAEKGYYTMSNNLVTLENGKQLTVKRQGLYYIYAQVTFCSNREASSQAPFIASLCLKSPGRFERILLRAANTHSSAKPCGQQSIHLGGVFELQPGASVFVNVTDPSQVSHGTGFTSFGLLKL
notes: From HEK293; Ig kappa leader left out; also called EHD2-scDuokine sc4-1BBL-EHD2-scCD40L; not shown: N-terminal FLAG tag
B2: sc4-1BBL-EHD2-scCD27L (ligand)
chain: [not shown - about 200 residues]GGGGSGGGGSGGGGSREGPELSPDDPAGLLDLRQGMFAQLVAQNVLLIDGPLSWYSDPGLAGVSLTGGLSYKEDTKELVVAKAGVYYVFFQLELRRVVAGEGSGSVSLALHLQPLRSAAGAAALALTVDLPPASSEARNSAFGFQGRLLHLSAGQRLGVHLHTEARARHAWQLTQGATVLGLFRVTPEIPAGLPSPRSEGGGGSGGGGSGGGGSREGPELSPDDPAGLLDLRQGMFAQLVAQNVLLIDGPLSWYSDPGLAGVSLTGGLSYKEDTKELVVAKAGVYYVFFQLELRRVVAGEGSGSVSLALHLQPLRSAAGAAALALTVDLPPASSEARNSAFGFQGRLLHLSAGQRLGVHLHTEARARHAWQLTQGATVLGLFRVTPEIPAGLPSPRSEGGSGGDFTPPTVKILQSSCDGGGHFPPTIQLLCLVSGYTPGTINITWLEDGQVMDVDLSTASTTQEGELASTQSELTLSQKHWLSDRTYTCQVTYQGHTFEDSTKKCADSNGGSGGSLGWDVAELQLNHTGPQQDPRLYWQGGPALGRSFLHGPELDKGQLRIHRDGIYMVHIQVTLAICSSTTASRHHPTTLAVGICSPASRSISLLRLSFHQGCTIASQRLTPLARGDTLCTNLTGTLLPSRNTDETFFGVQWVRPGGGSGGGSLGWDVAELQLNHTGPQQDPRLYWQGGPALGRSFLHGPELDKGQLRIHRDGIYMVHIQVTLAICSSTTASRHHPTTLAVGICSPASRSISLLRLSFHQGCTIASQRLTPLARGDTLCTNLTGTLLPSRNTDETFFGVQWVRPGGGSGGGSLGWDVAELQLNHTGPQQDPRLYWQGGPALGRSFLHGPELDKGQLRIHRDGIYMVHIQVTLAICSSTTASRHHPTTLAVGICSPASRSISLLRLSFHQGCTIASQRLTPLARGDTLCTNLTGTLLPSRNTDETFFGVQWVRP
notes: From HEK293; Ig kappa leader left out; dimer through EHD2, about 50% covalently linked, SEC major peak at monomer size; also called EHD2-scDuokine sc4-1BBL-EHD2-scCD27L; not shown: N-terminal FLAG tag
B3: 4-1BBL-CD40L (ligand)
chain: [not shown - about 200 residues]GGGGSGGGGSGGGGSGGGGSGDQNPQIAAHVISEASSKTTSVLQWAEKGYYTMSNNLVTLENGKQLTVKRQGLYYIYAQVTFCSNREASSQAPFIASLCLKSPGRFERILLRAANTHSSAKPCGQQSIHLGGVFELQPGASVFVNVTDPSQVSHGTGFTSFGLLKL
notes: Duokine from HEK293, FLAG-purified; VH leader left out; homotrimer by SEC; also called Duokine 4-1BBL-CD40L; not shown: N-terminal FLAG tag

Key:
CD27-Fc [1] = target: T1, CD27-Fc (human, UniProt P26842 20-191); assay: ELISA, coated receptor-Fc
T1 construct: extracellular domain; hinge included for covalent assembly; also called CD27 receptor-Fc fusion protein; not shown: human Fc gamma 1 region including the hinge region
T1 sequence (looked up): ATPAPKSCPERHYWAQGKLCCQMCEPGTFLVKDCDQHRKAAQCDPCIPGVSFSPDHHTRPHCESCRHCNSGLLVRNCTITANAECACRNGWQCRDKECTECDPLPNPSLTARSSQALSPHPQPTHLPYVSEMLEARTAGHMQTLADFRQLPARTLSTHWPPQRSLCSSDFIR

CD40 receptor on cells [2] = target: T2, CD40 receptor on cells (human, UniProt P25942 21-277); assay: cell-based or functional assay
4-1BB receptor on cells [3] = target: T3, 4-1BB receptor on cells (human, UniProt Q07011 24-255); assay: cell-based or functional assay
CD40-Fc [4] = target: T4, CD40-Fc (human, UniProt P25942 part only); assay: ELISA, coated receptor-Fc
T4 construct: extracellular domain; hinge included for covalent assembly; also called CD40 receptor-Fc fusion protein; not shown: human Fc gamma 1 region including the hinge region
Description: (§1) Receptor binding of the EHD2-scDuokines was analyzed by ELISA using fusion proteins of the extracellular region of CD40, CD27 and 4-1BB, respectively, with the human Fcγ1 region including the hinge region for covalent assembly (CD40-Fc, CD27-Fc, 4-1BB-Fc). Receptor-Fc fusion proteins (200 ng/well) were coated overnight at 4° C. and remaining binding sites were blocked with PBS, 2% skimmed milk powder (2% MPBS).

4-1BB-Fc [5] = target: T5, 4-1BB-Fc (human, UniProt Q07011 24-186); assay: ELISA, coated receptor-Fc
T5 construct: extracellular domain; hinge included for covalent assembly; also called 4-1BB receptor-Fc fusion protein; not shown: human Fc gamma 1 region including the hinge region
Description: as §1

CD40-Fc [6] = target: T4, CD40-Fc; assay: ELISA, coated receptor-Fc; remark: listed apart in the source
CD27-Fc [7] = target: T1, CD27-Fc; assay: ELISA, coated receptor-Fc; remark: listed apart in the source
Description: as §1

OX40-Fc = target: T6, OX40-Fc (human, UniProt P43489 29-214); assay: ELISA, coated receptor-Fc
T6 construct: extracellular domain; hinge included for covalent assembly; also called OX40 receptor-Fc fusion protein; not shown: human Fc gamma 1 region including the hinge region
T6 sequence (looked up): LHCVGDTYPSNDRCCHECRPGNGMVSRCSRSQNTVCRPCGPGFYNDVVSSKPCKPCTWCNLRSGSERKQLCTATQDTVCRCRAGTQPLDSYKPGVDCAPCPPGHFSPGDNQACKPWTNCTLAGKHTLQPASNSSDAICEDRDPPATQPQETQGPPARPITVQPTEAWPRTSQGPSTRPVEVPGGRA

CD40 receptor on cells [8] = target: T2, CD40 receptor on cells; assay: cell-based or functional assay; remark: listed apart in the source
4-1BB receptor on cells [9] = target: T3, 4-1BB receptor on cells; assay: cell-based or functional assay; remark: listed apart in the source
CD40-Fc [10] = target: T4, CD40-Fc; assay: ELISA, coated receptor-Fc; remark: listed apart in the source
Description: as §1, with “the Duokines” for “the EHD2-scDuokines”, “CD40, CD27, 4-1BB” for “CD40, CD27”, “and OX40,” for “and 4-1BB,”, “CD27-Fc, 4-1BB-Fc, OX40-Fc).” for “CD27-Fc, 4-1BB-Fc).”

4-1BB-Fc [11] = target: T5, 4-1BB-Fc; assay: ELISA, coated receptor-Fc; remark: listed apart in the source
Description: as §1, with “the Duokines” for “the EHD2-scDuokines”, “CD40, CD27, 4-1BB” for “CD40, CD27”, “and OX40,” for “and 4-1BB,”, “CD27-Fc, 4-1BB-Fc, OX40-Fc).” for “CD27-Fc, 4-1BB-Fc).”

T3 sequence (Q07011 24-255): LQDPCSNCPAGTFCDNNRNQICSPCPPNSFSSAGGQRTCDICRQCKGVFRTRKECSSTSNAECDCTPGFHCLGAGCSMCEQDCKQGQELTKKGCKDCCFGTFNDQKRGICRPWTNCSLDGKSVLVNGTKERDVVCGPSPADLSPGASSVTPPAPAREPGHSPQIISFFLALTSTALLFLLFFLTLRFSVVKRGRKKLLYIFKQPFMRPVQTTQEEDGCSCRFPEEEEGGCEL
T4 sequence (P25942 21-193 limits assumed): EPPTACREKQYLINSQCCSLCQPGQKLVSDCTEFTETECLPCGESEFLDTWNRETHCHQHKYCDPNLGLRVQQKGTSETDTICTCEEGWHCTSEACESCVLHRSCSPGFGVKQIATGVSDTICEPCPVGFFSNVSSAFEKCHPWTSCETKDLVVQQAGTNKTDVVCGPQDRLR
T2 sequence (P25942 21-277): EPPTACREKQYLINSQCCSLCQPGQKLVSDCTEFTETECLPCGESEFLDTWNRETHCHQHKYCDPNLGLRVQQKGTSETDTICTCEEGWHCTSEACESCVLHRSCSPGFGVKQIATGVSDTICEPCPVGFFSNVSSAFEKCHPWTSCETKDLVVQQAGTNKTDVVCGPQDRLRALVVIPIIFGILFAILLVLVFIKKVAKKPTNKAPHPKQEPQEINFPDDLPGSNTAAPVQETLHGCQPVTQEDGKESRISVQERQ

Row | Binder | binding result (CD27-Fc [1]) | Receptor activation (EC50, nM), IL-8 release from HT1080 cells (CD40 receptor on cells [2]) | Receptor activation (EC50, nM), IL-8 release from HT1080 cells (4-1BB receptor on cells [3]) | EC50 (CD40-Fc [4]) | EC50 (4-1BB-Fc [5]) | binding result (CD40-Fc [6]) | EC50 (CD27-Fc [7]) | binding result (OX40-Fc) | Receptor activation (EC50, nM) (CD40 receptor on cells [8]) | Receptor activation (EC50, nM) (4-1BB receptor on cells [9]) | EC50 (CD40-Fc [10]) | EC50 (4-1BB-Fc [11])
1 | B1 | no binding (tested: 100 nM (FIG. 16)) | 0.75 nM | 0.27 nM | 3.06 nM | 3.61 nM | – | – | – | – | – | – | –
2 | B2 | – | – | 1.64 nM | – | 1.93 nM | no binding (tested: 100 nM (FIG. 16)) | 2 nM | – | – | – | – | –
3 | B3 | no binding (tested: 100 nM (FIG. 4)) | – | – | – | – | – | – | no binding (tested: 100 nM (FIG. 4)) | 2.95 nM | 0.18 nM | 1.61 nM | 1.78 nM
